# Source: PubChem BioAssay AID504332 (National Center for Advancing Translational Sciences (NCATS), 2011)
# Screen size: about 350,000 compounds; about 31,000 (8.9%) were called active. The inconclusive results got no clear call from the source; some entries with a clear call stand among them for comparison. Calls follow the shape of the dose curve; as a rule, active = well fitted inhibition curve with a large enough effect; inconclusive = small, poorly fitted or top-dose-only effect; inactive = no such curve, though single readings can be large or run the other way. Where the call is inconclusive, the potency comes from a doubtful curve fit.
# Molecular target: Histone-lysine N-methyltransferase EHMT2 (Homo sapiens) (UniProt Q96KQ7)
# Chain of UniProt Q96KQ7 (Q96KQ7 whole entry, looked up): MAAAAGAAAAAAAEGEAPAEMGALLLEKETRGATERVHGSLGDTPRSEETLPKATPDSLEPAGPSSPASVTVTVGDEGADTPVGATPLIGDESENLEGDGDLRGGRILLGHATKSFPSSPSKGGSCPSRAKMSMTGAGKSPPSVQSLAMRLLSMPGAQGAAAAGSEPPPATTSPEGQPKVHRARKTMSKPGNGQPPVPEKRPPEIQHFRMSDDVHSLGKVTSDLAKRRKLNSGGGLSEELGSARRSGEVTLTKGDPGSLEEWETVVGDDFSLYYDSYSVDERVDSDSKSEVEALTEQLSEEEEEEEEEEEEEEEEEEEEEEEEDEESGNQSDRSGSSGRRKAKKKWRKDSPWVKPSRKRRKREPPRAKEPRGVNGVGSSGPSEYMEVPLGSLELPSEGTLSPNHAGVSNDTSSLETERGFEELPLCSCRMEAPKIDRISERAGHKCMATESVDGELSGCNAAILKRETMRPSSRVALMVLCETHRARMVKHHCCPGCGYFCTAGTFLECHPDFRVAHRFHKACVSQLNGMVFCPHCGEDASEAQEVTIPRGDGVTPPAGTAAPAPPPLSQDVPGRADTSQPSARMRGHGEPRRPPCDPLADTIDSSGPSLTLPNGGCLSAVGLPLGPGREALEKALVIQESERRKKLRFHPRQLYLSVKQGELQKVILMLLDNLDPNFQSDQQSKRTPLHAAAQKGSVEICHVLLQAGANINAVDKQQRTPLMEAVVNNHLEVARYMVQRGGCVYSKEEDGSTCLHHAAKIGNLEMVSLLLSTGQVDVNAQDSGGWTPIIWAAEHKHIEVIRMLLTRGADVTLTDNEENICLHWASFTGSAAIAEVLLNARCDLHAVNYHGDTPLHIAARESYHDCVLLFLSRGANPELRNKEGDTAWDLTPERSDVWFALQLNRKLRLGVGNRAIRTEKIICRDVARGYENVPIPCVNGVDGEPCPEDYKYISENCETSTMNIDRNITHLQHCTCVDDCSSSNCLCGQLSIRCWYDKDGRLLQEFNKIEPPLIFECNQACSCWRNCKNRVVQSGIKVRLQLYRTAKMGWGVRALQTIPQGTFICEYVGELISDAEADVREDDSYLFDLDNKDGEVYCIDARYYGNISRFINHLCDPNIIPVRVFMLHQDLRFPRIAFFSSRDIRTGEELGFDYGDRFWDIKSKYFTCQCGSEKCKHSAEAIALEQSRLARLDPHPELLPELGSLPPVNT
# Test: qHTS Assay for Inhibitors of Histone Lysine Methyltransferase G9a; also: nearly all actives have a fitted effect of over 75% in size
# Conditions: G9a H3K9 monomethylation, AlphaScreen, 2 h; activity, negative = inhibition: at 59 µM (top of the series) unless noted
# In short: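 Using a bead-based AlphaScreen, monomethylated H3K9 product from 2 h room-temperature reactions (G9a 20 nM, peptide 500 nM, SAM 20 uM) was detected with 0.5 ug/mL rabbit anti-H3K9me1 antibody.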
# % is scaled to controls: 0 for no effect and ±100 for the full control effect; potency is read from the fitted curve at half-maximal effect; tags tell the direction and shape of the fitted curve.
Compound,Potency,"activity, negative = inhibition"
CCN(CC)S(=O)(=O)c1ccc(C(=O)OC2CCCCC2CN(C)C)cc1 (stereo not given),"inconclusive: 70.8 µM [inhibitor, partial curve, poor fit]",–
CC(=O)Nc1cccc(C(=O)OCC(=O)NC(=O)c2ccccc2)c1,"inconclusive: 63.1 µM [inhibitor, partial curve, poor fit]",–
O=[N+]([O-])c1ccc(CSc2ccc(S(=O)(=O)N3CCCCCC3)cn2)cc1,"inconclusive: 11.2 µM [inhibitor, full curve]",–
CCN1/C(=C/C(C)=C/c2sc3ccccc3[n+]2CC)Sc2ccccc21,active: 17.8 µM,–
COc1ccc(C(=O)NNC(=O)Cc2nc3nc(C)cc(C)n3n2)cc1,active: 0.355 µM,–
Nc1c(C(=O)Nc2ccc(OC(F)(F)F)cc2)sc2nc(-c3ccncc3)ccc12,"inconclusive: 11.2 µM [inhibitor, partial curve, poor fit]",–
Cc1nn2c(=O)cc(COC(=O)Cc3ccccc3)nc2s1,inactive,–
Cc1cc(C(=O)CN2C(=O)NC3(CCCc4ccccc43)C2=O)c(C)n1Cc1ccco1 (stereo not given),–,inconclusive: -66.1% [inhibitor]
COC(=O)c1c(NC(=O)c2nc(SCc3ccc(F)cc3)ncc2Cl)sc2c1CCCC2,inactive,–
O=C(O)CC1S/C(=N/N=C/c2ccc(-c3ccccc3[N+](=O)[O-])o2)NC1=O (stereo not given),–,inactive: -41.9% [at 2.33 µM]
Cc1ccc(-c2csc3ncnc(N4CCN(C(=O)c5ccco5)CC4)c23)cc1,"inconclusive: 12.6 µM [inhibitor, single point]",–
COC(=O)C1=C(C)Nc2ncnn2C1c1ccc(OC(=O)c2ccccc2)cc1 (stereo not given),"inconclusive: 79.4 µM [inhibitor, single point]",–
Cc1ccc(S(=O)(=O)NC(C(=O)N2CCOCCOCCOCCOCC2)C(C)C)cc1 (stereo not given),"inconclusive: 5.62 µM [inhibitor, partial curve, poor fit]",–
O=C(NC(=S)Nc1ccccc1N1CCOCC1)c1sc2ccccc2c1Cl,"inconclusive: 39.8 µM [inhibitor, single point]",–
COc1ccc(C(=O)CSc2ccc(-c3ccc(C)cc3)nn2)cc1,"inconclusive: 56.2 µM [inhibitor, partial curve]",–
O=C1CC(NS(=O)(=O)c2cccnc2)CN1c1cccc(F)c1 (stereo not given),"inconclusive: 89.1 µM [inhibitor, single point]",–
CCOC(=O)C1CCCCN1C(=O)CCn1nnnc1CN1CCOCC1 (stereo not given),inactive,–
COc1ccc(OC)c(Nc2nc(-c3cccs3)cs2)c1,"inconclusive: 39.8 µM [inhibitor, single point]",–
COc1ccccc1CNC(=O)c1ccc2nc(N3CCCCC3)sc2c1,inactive,–
N#Cc1ccc(/C=N/NC(=O)c2cc(-c3cccs3)nc3ccccc23)cc1,inactive,–
CCC(C)Sc1nc2c(c(=O)[nH]c(=O)n2C)n1C (stereo not given),"inconclusive: 79.4 µM [inhibitor, single point]",–
CCOc1ccc(NC(=O)C(C)NC(=O)c2ccccc2Cl)cc1S(=O)(=O)N1CCCC1 (stereo not given),"inconclusive: 6.31 µM [inhibitor, single point]",–
Cc1ccc(Nc2c(-c3ccccc3O)nc3cnccn23)cc1,"inconclusive: 35.5 µM [inhibitor, partial curve, poor fit]",–

Compound,Potency,"activity, negative = inhibition"
O=C(NCCSc1c(-c2ccccc2)[nH]c2ccccc12)c1cc2ccccc2oc1=O,"inconclusive: 79.4 µM [inhibitor, single point]",–
Cc1cccc(Nc2ccc3nonc3c2[N+](=O)[O-])c1C,inactive,–
C[C@H](NC(=O)c1nc[nH]c1C(=O)NC1CCNCC1)C(=O)OC(C)(C)C,–,inconclusive: -57% [inhibitor] [at 2.33 µM]
Cc1cc(OCCn2nc(C(=O)O)c3ccccc3c2=O)ccc1C(C)C,inactive,–
O=C(O)c1cccc(N/N=C/c2ccc(F)c(F)c2)c1,active: 7.94 µM,–
O=c1c(CCc2ccccc2)nc2cnc(N3CCNCC3)nc2n1C1CC1,–,inactive: -11.3% [at 0.501 µM]
O=C(CCn1cccc1)NCc1ccc2c(c1)OCO2,"inconclusive: 56.2 µM [inhibitor, partial curve, poor fit]",–
CC(CCc1ccc(O)cc1)NCc1ccc(Cl)cc1Cl (stereo not given),"inconclusive: 89.1 µM [inhibitor, single point]",–
Cn1c(=O)n(C)c2cc(C(=O)O)ccc21,"inconclusive: 89.1 µM [inhibitor, single point]",–
O=C(CC1Nc2ccccc2NC1=O)Nc1ccc2c(c1)OCO2 (stereo not given),active: 12.6 µM,–
Cc1ccc(C(=O)NNC(=O)c2ccc(Br)s2)cc1S(=O)(=O)N1CCOCC1,–,inactive: 6.26% [at 12.7 µM]
CCOC(=O)c1ccc(NC(=O)CSc2nc3sc(C(=O)O)c(C)c3c(=O)[nH]2)cc1,inactive,–
CCN(CC)S(=O)(=O)c1ccc(N2CCN(c3cccc(OC)c3)CC2)c([N+](=O)[O-])c1,"inconclusive: 12.6 µM [inhibitor, single point]",–
COc1ccc(S(=O)(=O)N/N=C(/C)c2ccncc2)c(OC)c1,active: 25.1 µM,–
Brc1ccccc1OCCCCN1CCCCC1,inactive,–
COc1ccc(N2C(=O)c3ccccc3NC23C(=O)N(C)c2ccccc23)cc1 (stereo not given),"inconclusive: 1.41 µM [inhibitor, partial curve, poor fit]",–
Cc1ccc(-n2c(=O)cc(N3CCN(c4ccccc4Cl)CC3)[nH]c2=O)cc1,inactive,–
C[C@@H]1NC(=O)[C@H](CCC(N)=O)NC(=O)c2cc([N+](=O)[O-])cc(I)c2NCC[C@@H](C(N)=O)NC1=O,active: 11.2 µM,–
COC(=O)c1[nH]c2ccc(F)cc2c1NS(=O)(=O)c1ccc(F)c(C)c1,"inconclusive: 89.1 µM [inhibitor, single point]",–
Cc1nn(S(=O)(=O)c2ccc(Br)cc2)c(C)c1S(=O)(=O)N1CCCCCC1,inactive,–
CCOC(=O)c1ccc(N2C(=O)c3n[nH]c(-c4ccco4)c3C2c2ccc(C)cc2)cc1 (stereo not given),active: 11.2 µM,–
COc1ccccc1CNC(=O)Cn1cnnn1,"inconclusive: 89.1 µM [inhibitor, single point]",–
